Laboratory results as given in patent US20250236878A1 (priority 2019, published 2025).
Where two headings read alike, the source gives them in different places.

Experiments:
[1] = for A540 60 min post-treatment: n = 3
[2] = for A540 10 min post-treatment: starch
[3] = A540 30 min post-treatment, 37° C., citrate buffer pH 4.9 (Table 55)
[4] = Table 54 Treatments E-G, with cell supernatant from Bacillus subtilis 168
[5] = Table 54 Treatments A-D, 10 min post-treatment
[6] = Table 54 Treatments A-D, Treatment A = α-amylase from Bacillus licheniformis (SEQ ID NO: 735), 33 U/mL alone
[7] = Table 54 Treatments A-D, enzymes 33 U/mL, L-Cysteine 0.013 mg/mL, 1× PBS, pH 6.9

Molecule	A540 60 min post-treatment [1]	Blank subtracted A540 [2, 5]	Change relative to Treatment A [2, 6] [×]	A540 10 min post-treatment [2, 7]	further results
β-1,3-D-glucanase (QLK1) from Kitasatospora phosalacinea strain SYBCQL (SEQ ID NO: 773) (protein, listed as Kitasatospora phosalacinea) ATTPLAAAPVAAGNWGDDFDGPAGAAVDPAKWTLETGGSGNGNHELQYYTAGAANAALDGQGHLVITAKRNTDPGLSCWYGTCQYTSARLNTSRTFTQAYGHFESRIKIPRGQGIWPAFWMLGNDLGTAGWPNSGEIDVMENIGREPGTVHGTIHGPGYSGAGGIGAPYSLPAGQSFADAFHTFAVDWSPTAITWSVDGTAYQTRTPADLGGNRWVFDHPFFVILNLAVGGDWPGSPDGSSTYPQTMTVDYVHTTTWGGSTGGSYTGQITGPGGMCMDVAGASSADSTPIQLHNCTGNAAQQWTVGADGTVRALGKCLDVAAASHNDGAAIQLYTCNGTSAQQWTHRSGNDLLNPGSGKCLDSPNGSSADGTHLQLWTCNGTGAQKWTLG					Blank subtracted A540 ([1]; β-1,3-glucan from Euglena gracilis, 30 min post-treatment): 0.307
α-amylase from Bacillus subtilis 168 (SEQ ID NO: 734) (protein, listed as Bacillus subtilis) ETANKSNELTAPSIKSGTILHAWNWSFNTLKHNMKDIHDAGYTAIQTSPINQVKEGNQGDKSMSNWYWLYQPTSYQIGNRYLGTEQEFKEMCAAAEEYGIKVIVDAVINHTTSDYAAISNEVKSIPNWTHGNTQIKNWSDRWDVTQNSLLGLYDWNTQNTQVQSYLKRFLDRALNDGADGFRFDAAKHIELPDDGSYGSQFWPNITNTSAEFQYGEILQDSASRDAAYANYMDVTASNYGHSIRSALKNRNLGVSNISHYASDVSADKLVTWVESHDTYANDDEESTWMSDDDIRLGWAVIASRSGSTPLFFSRPEGGGNGVRFPGKSQIGDRGSALFEDQAITAVNRFHNVMAGQPEELSNPNGNNQIFMNQRGSHGVVLANAGSSSVSINTATKLPDGRYDNKAGAGSFQVNDGKLTGTINARSVAVLYPDDIAKAPHVFLENYKTGVTHSFNDQLTITLRADANTTKAVYQINNGPETAFKDGDQFTIGKGDPFGKTYTIMLKGTNSDGVTRTEKYSFVKRDPASAKTIGYQNPNHWSQVNAYIYKHDGSRVIELTGSWPGKPMTKNADGIYTLTLPADTDTTNAKVIFNNGSAQVPGQNQPGFDYVLNGLYNDSGLSGSLPH					A540 10 min post-treatment ([2]; Table 54 Treatments E-G, amylase 60 U/mL, 2-DDG 6.94 mg/mL, with cell supernatant from Bacillus subtilis 168): 0.374; Blank subtracted A540 [2, 4]: 0.190; Change relative to Treatment A [2, 4]: 1.0×
β-1,3-D-glucanase from Hordeum vulgare (SEQ ID NO: 731) (protein, Hordeum vulgare) GVCYGVIGNNLPSRSDVVQLYRSKGINGMRIYFADGQALSALRNSGIGLILDIGNDQLANIAASTSNAASWVQNNVRPYYPAVNIKYIAAGNEVQGGATQSILPAMRNLNAALSAAGLGAIKVSTSIRFDEVANSFPPSAGVFKNAYMTDVARLLASTGAPLLANVYPYFAYRDNPGSISLNYATFQPGTTVRDQNNGLTYTSLFDAMVDAVYAALEKAGAPAVKVVVSESGWPSAGGFAASAGNARTYNQGLINHVGGGTPKKREALETYIFAMFNENQKTGDATERSFGLFNPDKSPAYNIQF	0.522	0.030	0.07	0.214	
SEQ ID NO: 735: starch-degrading α-amylase from Bacillus licheniformis (protein, listed as Bacillus licheniformis) MKQQKRLYARLLPLLFALIFLLPHSATAAANLNGTLMQYFEWYMPNDGQHWKRLQNDSAYLAEHGITAVWIPPAYKGTSQDDVGYGAYDLYDLGEFHQKGTVRTKYGTKGELQSAINSLHSRGINVYGDVVINHKGGADATEDVTAVEVDPADRNRVTSGEQRIKAWTHFQFPGRGSTYSDFKWHWYHFDGTDWDESRKLNRIYKFQGKAWDWEVSNENGNYDYLMYADIDYDHPDVTAEIKRWGTWYANELQLDGFRLDAVKHIKFSFLRDWVNHVREKTGKEMFTVAEYWQNDLGALENYLNKTNFNHSVFDVPLHYQFHAASTQGGGYDMRKLLNGTVVSKHPVKAVTFVDNHDTQPGQSLESTVQTWFKPLAYAFILTREAGYPQIFYGDMYGTKGASQREIPALKHKIEPILKARIQYAYGAQHDYFDHHDIVGWTREGDSSVANSGLAALITDGPGGTKRMYVGRQNAGETWHDITGNRSDSVVINAEGWGEFHVNGGSVSIYVQR					glucanase response compared with β-1,3-D-glucanase alone (Treatment A) ([1]; pH 4.9): did not show additional glucanase activity
α-amylase from Bacillus licheniformis (SEQ ID NO: 735) (protein, listed as Bacillus licheniformis) MKQQKRLYARLLPLLFALIFLLPHSATAAANLNGTLMQYFEWYMPNDGQHWKRLQNDSAYLAEHGITAVWIPPAYKGTSQDDVGYGAYDLYDLGEFHQKGTVRTKYGTKGELQSAINSLHSRGINVYGDVVINHKGGADATEDVTAVEVDPADRNRVTSGEQRIKAWTHFQFPGRGSTYSDFKWHWYHFDGTDWDESRKLNRIYKFQGKAWDWEVSNENGNYDYLMYADIDYDHPDVTAEIKRWGTWYANELQLDGFRLDAVKHIKFSFLRDWVNHVREKTGKEMFTVAEYWQNDLGALENYLNKTNFNHSVFDVPLHYQFHAASTQGGGYDMRKLLNGTVVSKHPVKAVTFVDNHDTQPGQSLESTVQTWFKPLAYAFILTREAGYPQIFYGDMYGTKGASQREIPALKHKIEPILKARIQYAYGAQHDYFDHHDIVGWTREGDSSVANSGLAALITDGPGGTKRMYVGRQNAGETWHDITGNRSDSVVINAEGWGEFHVNGGSVSIYVQR	0.383	0.406	1.0	0.590	
SEQ ID NO: 776: β-1,3-D-glucanase (protein, Paenibacillus sp IAM1165) APNWNLVWSDEFNGTSLNRANWTPEIGTGSGGWGNNELQYYTDRAQNVQVTGGNLVITAQKESYGGMNYTSARIKTQDLKSFTYGKVEARIKLPSGQGLWPAFWMLGSNISSVGWPKSGEIDIMERVNNNPYVNGTVHWDAGGHADFGRVSGNLDFSQFHVYSIEWDSKYIRWFVDGQQFNEFYIENGTGNTEEFQRPFFILLNLAVGGNWPGSPNNSTPFPSQMLVDYVRVYQDTGASNVISDGIYTIASKASGKVMDVVDVSTARGAKIQQWTNYVANNQRFRVESTGDGYYKLTAVHSGKVLDVPSSSTSTGVQLQQWDDNGSNAQRWKIVDVGGGYYKLVSKVSGLAVDVASASTADGAVVQQWTDNGTDAQKWLFTKIN					activity on CM-pachyman from Poria cocos [3]: have activity
